Among all 150,000 compounds or so, about 540 (0.36%) showed an effect of 50% or more. The list shows a part of the results.
What follows are compounds tested on Plasmodium falciparum (assay: Primary screen in NF54 nanoGlo assay, in single point, at 2uM, 72h; a lower Z score goes with more inhibition). Conditions: timepoint 72 hour.
Type: functional, Erythrocyte

Compound | % Inhibition [%] | Z score
CCOc1ncccc1-c1cc(NC2CC2)nc(N)n1 | -1 | 0.16
Cc1cn(Cc2ncnn2C2CCCCC2)c(=O)[nH]c1=O | -11 | 1.39
CNC(=O)c1nsc(C(=O)OC)c1N | -4 | 0.44
Cn1c(C(=O)Nc2cc(F)ccc2NC(=O)c2ccccn2)cc(Cl)c1Cl | -27 | 2.71
C[C@]1(c2nc(C3CC3)no2)CCCN(C(=O)Cc2ccsc2)C1 | 12 | -1.44
C[C@@H](c1cccs1)N(C)C(=O)COn1nnc2ccccc21 | -9 | 1.74
CN(C)c1ncc(CN[C@]2(CO)COc3ccccc3C2)cn1 | -3 | 0.38
Cc1cc(C)nc(-n2[nH]c(C(=O)N3CCCCCO3)cc2=O)n1 | -6 | 0.77
c1ccc(CN2CCC3(CCN(c4ncnc5[nH]ncc45)CC3)C2)cc1 | -20 | 3.84
CCN1CCN(C(=O)c2cc(COc3ccc(F)c(F)c3)on2)[C@@H](C)C1=O | -26 | 2.99
O=C(c1cnn2c1CCCC2)N1CCN(S(=O)(=O)Cc2ccc(Cl)cc2)CC1 | -4 | 0.68
Cc1cc(NC(=O)NC2CCCCCCC2)no1 | -8 | 1.33
Cn1nc(C(=O)N2CCCc3ccccc32)c2ccccc2c1=O | -15 | 2.37
Cc1cc(C)cc(N2C(=O)NC3c4ccccc4OC2(C)C3C(=O)Nc2ccc(Cl)cc2)c1 (centres undefined) | 29 | -3.85
COc1cccc(CN2CCN(C(=O)N3CCCC3)CC2)n1 | 6 | -1.1
O=C(Cn1cc(S(=O)(=O)c2ccccc2)c2ccccc21)N1CCOCC1 | -18 | 1.98
N#CCCN(CCC(F)(F)F)C(=O)[C@H]1CCCOC1 | -10 | 0.99
CC(C)c1ccc(NC[C@H]2CC2(C)C)nn1 | -23 | 3.39
Cc1nccc(CNC(=O)c2ccccc2NC(=O)C(C)(C)C)n1 | 3 | -0.49
O=C(COCc1nc2cc(F)ccc2[nH]1)N[C@@H]1C[C@H]2OCC[C@@H]12 | -16 | 1.75
O=C(NC1(c2ncccn2)CCOCC1)c1csc(NC2CC2)n1 | 0 | 0.04

Compound | % Inhibition [%] | Z score
Cc1cccc(C)c1-n1c(=O)n(C[C@H]2CCCO2)c(=O)c2c1ncn2CCOc1ccccc1 | -15 | 1.36
Cc1noc([C@@H]2CN(C(=O)NC3CCC(=O)NC3C3CCCO3)C[C@H](C)O2)n1 (some centres undefined) | -3 | 0.27
Cc1noc(C)c1CC(=O)N1C[C@H](c2nc(C3CC3)no2)C2(CCN(C)CC2)C1 | -5 | 0.73
Cc1ccoc1C(=O)NS(=O)(=O)c1ccc(NS(C)(=O)=O)c(F)c1 | -16 | 2.1
CCN1CN(C(=O)C2(C)CC3CC3C2)CC1=O (centres undefined) | 21 | -3.18
Cc1ccc(F)c(NC(=O)c2sc(-c3cn(C)c4ncccc34)nc2C)c1 | -5 | 0.82
Cc1nc2ccc(NCN3C(=O)NC(C)(C)C3=O)cc2s1 | -8 | 0.92
COc1ccc2cc1OCCn1cc(nn1)CO[C@H]1CN(C(=O)c3cccc4c3CCC4=O)C[C@@H]1NC2=O | 0 | 0.05
C#CCN(CC#N)S(=O)(=O)c1cnn(C)c1 | 1 | -0.11
CC1(C)CC(=O)c2cnc3c(C(=O)N4CCN(c5ccc(Cl)cc5)CC4)cnn3c2C1 | -15 | 2.03
O=C(CNC1CCCC1)Nc1ccc(F)cc1F | -7 | 1.11
CC(NC(=O)Cn1cc(C(F)(F)F)ccc1=O)C1CCCO1 (centres undefined) | -5 | 0.41
COC(=O)C1C2CCC(C2)C1NC(=O)CCn1cc(C)cn1 (centres undefined) | 7 | -0.83
C=Cn1cc[n+](CC(=O)c2ccc(-c3ccccc3)cc2)c1 | 47 | -4.71
Cc1nn(C)c(C)c1-c1ccnc(N[C@H](c2ccncc2)c2ccc(F)cc2)n1 | -2 | 0.44
CCOC(=O)N1CCN(/C(=N/c2sc(-c3ccccc3)nc2-c2ccccc2)c2ccc(C)cc2)CC1 | 0 | 0.01
COc1ccc(-c2ccc(=O)[nH]n2)cc1S(=O)(=O)Nc1cc(C)ccc1C | 2 | -0.24
CCOC(=O)NCC(=O)NCc1cccs1 | -4 | 0.44
C[C@H]1CCCN(C(=O)C2CC=CC2)CC1 | -4 | 0.42
Cc1nc(CC(=O)N2CCCN(C(=O)C(F)(F)F)CC2)c(C)s1 | 5 | -0.87
CCCCN1CC(=O)N=C1Nc1ccccc1 | -4 | 0.5
